# Where a name gives a salt, the structure may show the parent alone. ± gives the standard deviation of the averaged measurements. Over roughly 1,300 compounds, “normalised cell viability” has its median near 1; the lowest 2% begin near 0.14. Some of the results follow.
# Test system: V-C8 (BRCA2-deficient hamster cells)
# Assay: normalised cell viability (fraction of plate median); higher = more viable cells (less toxic)
# Conditions: 5 µM
# Procedure, shortened: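 BRCA2-deficient hamster V-C8 cells and BRCA2-restored V-C8 cells were plated in 96-well plates, and library drugs were added 24 h later at 5 μM in 100 μl medium. Exposure lasted 3 days in screen 1 and 6 days in screen 2, next to solvent-only wells. Viability was then read by resazurin assay, median-plate normalised and averaged across triplicate wells.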
compound,measurement,setting,value
CCCCCCC[N+](CC)(CC)CCCCc1ccc(Cl)cc1 [Clofilium tosylate],normalised cell viability,treatment time: 3 days,0.842 ± 0.068
same,normalised cell viability,treatment time: 6 days,0.889 ± 0.12
CNCCCC1c2ccccc2C=Cc2ccccc21 [Protriptyline hydrochloride],normalised cell viability,treatment time: 3 days,0.919 ± 0.021
same,normalised cell viability,treatment time: 6 days,0.952 ± 0.014
Oc1ncnc2[nH]ncc12 [Allopurinol],normalised cell viability,treatment time: 3 days,1.06 ± 0.1
same,normalised cell viability,treatment time: 6 days,1.03 ± 0.053
C[N+]1(CCCCC[N+]2(C)CCCC2)CCCC1 [Pentolinium bitartrate],normalised cell viability,treatment time: 3 days,0.986 ± 0.1
same,normalised cell viability,treatment time: 6 days,0.992 ± 0.011
Cc1onc(-c2ccccc2)c1-c1ccc(S(N)(=O)=O)cc1 [Valdecoxib],normalised cell viability,treatment time: 3 days,1.1 ± 0.084
same,normalised cell viability,treatment time: 6 days,1.03 ± 0.03
CCCc1cc(=O)[nH]c(=S)[nH]1 [Propylthiouracil],normalised cell viability,treatment time: 3 days,1.02 ± 0.022
same,normalised cell viability,treatment time: 6 days,1.025 ± 0.009
CCCCN(CCCC)CCC(O)c1cc2c(Cl)cc(Cl)cc2c2cc(C(F)(F)F)ccc12 (stereo not given) [Halofantrine hydrochloride],normalised cell viability,treatment time: 3 days,0.815 ± 0.015
same,normalised cell viability,treatment time: 6 days,0.832 ± 0.052
C#C[C@]1(O)CC[C@H]2[C@@H]3CCc4cc(O)ccc4[C@H]3CC[C@@]21C [Ethinylestradiol],normalised cell viability,treatment time: 3 days,0.969 ± 0.028
same,normalised cell viability,treatment time: 6 days,1.05 ± 0.036
CCOc1cc(CC(=O)N[C@@H](CC(C)C)c2ccccc2N2CCCCC2)ccc1C(=O)O [Repaglinide],normalised cell viability,treatment time: 3 days,0.912 ± 0.2
same,normalised cell viability,treatment time: 6 days,1.06 ± 0.15
CCOC(=O)C1=C(C)NC(C)=C(C(=O)OCC)C1c1ccccc1/C=C/C(=O)OC(C)(C)C [Lacidipine],normalised cell viability,treatment time: 3 days,0.971 ± 0.024
same,normalised cell viability,treatment time: 6 days,0.888 ± 0.056
COc1ccc(C(=O)CC(=O)c2ccc(C(C)(C)C)cc2)cc1 [Avobenzone],normalised cell viability,treatment time: 3 days,1.01 ± 0.019
same,normalised cell viability,treatment time: 6 days,0.986 ± 0.044
COc1ncnc(NS(=O)(=O)c2ccc(N)cc2)c1OC [Sulfadoxine],normalised cell viability,treatment time: 3 days,1.16 ± 0.35
same,normalised cell viability,treatment time: 6 days,1.01 ± 0.074
CC(=O)OCC(=O)[C@@]1(O)[C@H](C)C[C@H]2[C@@H]3CCC4=CC(=O)C=C[C@]4(C)[C@@]3(F)[C@@H](O)C[C@@]21C [Dexamethasone acetate],normalised cell viability,treatment time: 3 days,1.06 ± 0.051
same,normalised cell viability,treatment time: 6 days,1.05 ± 0.074
COc1c(N2C[C@@H]3CCCN[C@@H]3C2)c(F)cc2c(=O)c(C(=O)O)cn(C3CC3)c12 [Moxifloxacin],normalised cell viability,treatment time: 3 days,1.02 ± 0.1
same,normalised cell viability,treatment time: 6 days,0.974 ± 0.052
COc1ccc(C(=O)c2ccccc2)c(O)c1 [Oxybenzone],normalised cell viability,treatment time: 3 days,0.975 ± 0.061
same,normalised cell viability,treatment time: 6 days,1 ± 0.011
CCCCCN(CCCCC)C(=O)C(CCC(=O)O)NC(=O)c1ccc(Cl)c(Cl)c1 (stereo not given) [Lorglumide sodium salt],normalised cell viability,treatment time: 3 days,1.023 ± 0.0093
same,normalised cell viability,treatment time: 6 days,1 ± 0.021
CC(C)(C)NC(=O)[C@@H]1C[C@@H]2CCCC[C@@H]2CN1C[C@@H](O)[C@H](Cc1ccccc1)NC(=O)[C@H](CC(N)=O)NC(=O)c1ccc2ccccc2n1 [Saquinavir mesylate],normalised cell viability,treatment time: 3 days,0.823 ± 0.21
same,normalised cell viability,treatment time: 6 days,0.943 ± 0.06
Nc1nc2c(ncn2COCCO)c(=O)[nH]1 [Acyclovir],normalised cell viability,treatment time: 3 days,1.01 ± 0.024
same,normalised cell viability,treatment time: 6 days,0.996 ± 0.037
CCCC1O[C@@H]2C[C@H]3[C@@H]4CCC5=CC(=O)C=C[C@]5(C)[C@H]4[C@@H](O)C[C@]3(C)[C@]2(C(=O)CO)O1 (stereo not given in full) [Budesonide],normalised cell viability,treatment time: 3 days,0.694 ± 0.041
same,normalised cell viability,treatment time: 6 days,0.709 ± 0.068
Cc1ccccc1OCC(O)CO (stereo not given) [Mephenesin],normalised cell viability,treatment time: 3 days,0.965 ± 0.04
same,normalised cell viability,treatment time: 6 days,0.998 ± 0.037
O=C1CN(/N=C/c2ccc([N+](=O)[O-])o2)C(=O)N1 [Nitrofurantoin],normalised cell viability,treatment time: 3 days,0.937 ± 0.025
same,normalised cell viability,treatment time: 6 days,1.15 ± 0.29
CCN(CC)CCOC(=O)C(Cc1cccc2ccccc12)CC1CCCO1 (stereo not given) [Nafronyl oxalate],normalised cell viability,treatment time: 3 days,0.1613 ± 0.00033
same,normalised cell viability,treatment time: 6 days,0.14 ± 0.0088
C[C@H](N)[C@H](O)c1cccc(O)c1 [Metaraminol bitartrate],normalised cell viability,treatment time: 3 days,1.19 ± 0.19
same,normalised cell viability,treatment time: 6 days,0.98 ± 0.15
CCOC(=O)n1ccn(C)c1=S [Carbimazole],normalised cell viability,treatment time: 3 days,0.287 ± 0.012
same,normalised cell viability,treatment time: 6 days,0.428 ± 0.02
O=C1CN(/N=C/c2ccc(-c3ccc([N+](=O)[O-])cc3)o2)C(=O)N1 [Dantrolene sodium salt],normalised cell viability,treatment time: 3 days,1.04 ± 0.083
same,normalised cell viability,treatment time: 6 days,1.08 ± 0.043
Cc1cc(NS(=O)(=O)c2ccc(N)cc2)no1 [Sulfamethoxazole],normalised cell viability,treatment time: 3 days,1.02 ± 0.028
same,normalised cell viability,treatment time: 6 days,0.959 ± 0.076
CN[C@@H]1[C@@H](O)[C@@H](O[C@@H]2[C@@H](O)[C@H](O[C@H]3OC(CN)=CC[C@H]3N)[C@@H](N)C[C@H]2N)OC[C@]1(C)O [Sisomicin sulfate],normalised cell viability,treatment time: 3 days,0.157 ± 0.0072
same,normalised cell viability,treatment time: 6 days,0.145 ± 0.0056
CC1(C)S[C@@H]2[C@H](NC(=O)[C@H](C(=O)O)c3ccsc3)C(=O)N2[C@H]1C(=O)O [Ticarcillin sodium],normalised cell viability,treatment time: 3 days,1.03 ± 0.049
same,normalised cell viability,treatment time: 6 days,0.9851 ± 0.0039
COC(=O)C1=C(C)NC(C)=C(C(=O)OC2CCCN(Cc3ccccc3)C2)C1c1cccc([N+](=O)[O-])c1 (stereo not given) [Benidipine hydrochloride],normalised cell viability,treatment time: 3 days,0.94 ± 0.04
same,normalised cell viability,treatment time: 6 days,0.863 ± 0.04
C[C@]12C[C@H](O)[C@H]3[C@@H](CCC4=CC(=O)CC[C@@]43C)[C@@H]1CC[C@@H]2C(=O)CO [Corticosterone],normalised cell viability,treatment time: 3 days,1.01 ± 0.15
same,normalised cell viability,treatment time: 6 days,1.05 ± 0.11
CC[C@H]1OC(=O)C[C@@H](O)[C@H](C)[C@@H](O[C@@H]2O[C@H](C)[C@@H](O[C@H]3C[C@@](C)(O)[C@@H](O)[C@H](C)O3)[C@H](N(C)C)[C@H]2O)[C@@H](CC=O)C[C@@H](C)C(=O)/C=C/C(C)=C/[C@@H]1CO[C@@H]1O[C@H](C)[C@@H](O)[C@@H](OC)[C@H]1OC [Tylosin],normalised cell viability,treatment time: 3 days,1.02 ± 0.036
same,normalised cell viability,treatment time: 6 days,0.978 ± 0.077
O=C(CCCCCCC(=O)Nc1ccccc1)NO [Vorinostat],normalised cell viability,treatment time: 3 days,0.14 ± 0.012
same,normalised cell viability,treatment time: 6 days,0.168 ± 0.012
CC1(C)O[C@@H]2C[C@H]3[C@@H]4CCC5=CC(=O)C=C[C@]5(C)[C@H]4[C@@H](O)C[C@]3(C)[C@]2(C(=O)CO)O1 [Desonide],normalised cell viability,treatment time: 3 days,1.02 ± 0.014
same,normalised cell viability,treatment time: 6 days,0.981 ± 0.026
C/C(=C(\CCOP(=O)(O)O)SC(=O)c1ccccc1)N(C=O)Cc1cnc(C)nc1N [Benfotiamine],normalised cell viability,treatment time: 3 days,0.942 ± 0.095
same,normalised cell viability,treatment time: 6 days,1.02 ± 0.028
CCN(CC)C(=S)SSC(=S)N(CC)CC [Disulfiram],normalised cell viability,treatment time: 3 days,0.237 ± 0.038
same,normalised cell viability,treatment time: 6 days,0.667 ± 0.0071
Nc1c2c(nc3ccccc13)CCCC2 [Tacrine hydrochloride],normalised cell viability,treatment time: 3 days,0.984 ± 0.031
same,normalised cell viability,treatment time: 6 days,1.1 ± 0.049
CC[C@H](C)C(=O)O[C@H]1C[C@@H](C)C=C2C=C[C@H](C)[C@H](CC[C@@H]3C[C@@H](O)CC(=O)O3)[C@H]21 [Lovastatin],normalised cell viability,treatment time: 3 days,0.213 ± 0.0055
same,normalised cell viability,treatment time: 6 days,0.172 ± 0.007
Cc1c(C)c2c(c(C)c1O)CCC(C)(C(=O)O)O2 (stereo not given) [Trolox],normalised cell viability,treatment time: 3 days,1.05 ± 0.051
same,normalised cell viability,treatment time: 6 days,1.01 ± 0.074
CCN(CC)CCOC(=O)c1ccc(N)cc1 [Procaine hydrochloride],normalised cell viability,treatment time: 3 days,0.9991 ± 0.0032
same,normalised cell viability,treatment time: 6 days,1.033 ± 0.0093
CC(=O)O[C@H]1C[C@@]2(C)[C@@H](C[C@@H](O)[C@H]3[C@@]4(C)CC[C@@H](O)[C@@H](C)[C@@H]4CC[C@@]32C)/C1=C(\CCC=C(C)C)C(=O)O [Fusidic acid sodium salt],normalised cell viability,treatment time: 3 days,1.04 ± 0.011
same,normalised cell viability,treatment time: 6 days,1.07 ± 0.048
